One assay concerns HSkMC. Briefly: cytotoxicity call (relative viability < 0.9). As to conditions: 10 µM.
A further assay relates to HepG2. Briefly: cytotoxicity call (relative viability < 0.9). As to conditions: 10 µM.
Another assay deals with S. aureus RN4220. Briefly: growth inhibition call (relative growth <= 0.2). As to conditions: 50 µM.

The list shows a part of the results.

Turning to `C[C@@H]1CN([C@H](C)CO)C(=O)c2cc(NC(=O)CCC(F)(F)F)ccc2O[C@@H](C)CCCCO[C@H]1CN(C)C(=O)Nc1ccc(C(F)(F)F)cc1`, the cytotoxicity call with HSkMC and in the assay with HepG2 was “inactive” in each case. For the same molecule, the growth inhibition call with S. aureus RN4220 was “inactive”.

Regarding `N=C(N)Nc1nc(CSCC/C(N)=N\S(N)(=O)=O)cs1`, the cytotoxicity call in the assay with HSkMC and in the assay with HepG2 was “inactive” in each case. In the assay on S. aureus RN4220, the growth inhibition call was “inactive”.

For `NC[C@@](O)(CS(=O)(=O)O)c1ccc(Cl)cc1`, the cytotoxicity call in the assay with HSkMC and in the assay on HepG2 was “inactive” in each case. In the assay on S. aureus RN4220, the growth inhibition call is “inactive”.

Turning to `Cc1cn([C@@H]2O[C@H](CO)[C@@H](O)[C@H]2O)c(=O)nc1N`, the cytotoxicity call in the assay with HSkMC and with HepG2 was “inactive” throughout. Further, the growth inhibition call in the assay on S. aureus RN4220 was “inactive”.

As for `C[C@@H](O)CNC(=O)C(=O)NC(C)(C)C`, the cytotoxicity call in the assay with HSkMC and with HepG2 was “inactive” throughout. Also, the growth inhibition call in the assay on S. aureus RN4220 is “inactive”.

As to `CN1CCO[C@H]2CCN(C(=O)c3cn(C)cn3)C[C@H]21`, the cytotoxicity call with HSkMC and in the assay on HepG2 was “inactive” each time. In the assay with S. aureus RN4220, the growth inhibition call was “inactive”.

With `C[C@@H]1CN([C@@H](C)CO)C(=O)Cc2cc(NC(=O)CCC(F)(F)F)ccc2O[C@H]1CN(C)Cc1ccc(C(=O)Nc2ccccc2N)cc1`, the cytotoxicity call in the assay on HSkMC and in the assay with HepG2 was “inactive” in each case. Besides, the growth inhibition call in the assay on S. aureus RN4220 is “inactive”.

For the molecule `Cc1noc(C)c1NC(=O)N(C)C[C@H]1Oc2c(NS(C)(=O)=O)cccc2C(=O)N([C@H](C)CO)C[C@@H]1C`, the cytotoxicity call in the assay with HSkMC and in the assay on HepG2 was “inactive” throughout. The growth inhibition call in the assay on S. aureus RN4220 is “inactive”.

`C[C@@H]1CN([C@H](C)CO)S(=O)(=O)c2ccc(-c3cccnc3)cc2O[C@@H]1CN(C)CC1CCOCC1`: the cytotoxicity call with HSkMC and with HepG2 was “inactive” in each case. In addition, the growth inhibition call with S. aureus RN4220 is “inactive”.

Regarding `CC(C)NC(=O)N(C)C[C@@H]1Oc2ccc(NC(=O)c3ccncc3)cc2CC(=O)N([C@H](C)CO)C[C@@H]1C`, the cytotoxicity call in the assay with HSkMC and in the assay on HepG2 was “inactive” in each case. Further, the growth inhibition call with S. aureus RN4220 is “inactive”.

Regarding `NC(=O)[C@H]1[C@@H]2C(=O)O[C@@H](c3ccccc3)[C@@H](c3ccccc3)N2[C@@H](c2ccccc2OCCO)[C@]12C(=O)Nc1ccc(C#CC3=CCCCC3)cc12`, the cytotoxicity call in the assay with HSkMC and in the assay with HepG2 was “active” each time. For the same molecule, the growth inhibition call in the assay on S. aureus RN4220 was “inactive”.

As to `F[C@H]1CCNC1`, the cytotoxicity call with HSkMC and in the assay with HepG2 was “inactive” each time. The growth inhibition call in the assay with S. aureus RN4220 is “inactive”.

Turning to `CNC[C@H]1Oc2ccc(NS(=O)(=O)c3cn(C)cn3)cc2C(=O)N([C@H](C)CO)C[C@H]1C`, the cytotoxicity call with HSkMC and in the assay on HepG2 was “inactive” in each case. The growth inhibition call in the assay with S. aureus RN4220 was “inactive”.

In the case of `C#CCn1c(=O)c2c(OC)ccnc2n(C)c1=O`, the cytotoxicity call in the assay with HSkMC and in the assay with HepG2 was “inactive” in each case. Further, the growth inhibition call with S. aureus RN4220 is “inactive”.

Take `COc1ccc(S(=O)(=O)N(C)C[C@H]2Oc3c(NC(=O)c4cnccn4)cccc3C(=O)N([C@@H](C)CO)C[C@H]2C)cc1`: the cytotoxicity call with HSkMC and in the assay on HepG2 was “inactive” throughout. Moreover, the growth inhibition call in the assay on S. aureus RN4220 was “inactive”.

With `C[C@@H]1CN([C@@H](C)CO)C(=O)c2cc(NC(=O)CCC(F)(F)F)ccc2O[C@@H](C)CCCCO[C@@H]1CN(C)C(=O)NC1CCCCC1`, the cytotoxicity call in the assay with HSkMC and with HepG2 was “inactive” throughout. Also, the growth inhibition call with S. aureus RN4220 was “inactive”.

For the molecule `C[C@H](O)[C@H](O)[C@@H](O)[C@@H](O)/C=N/NC(=O)CCCCCCC(=O)NO`, the cytotoxicity call with HSkMC and in the assay with HepG2 was “inactive” in each case. Moreover, the growth inhibition call with S. aureus RN4220 is “inactive”.

On to `COc1ccc(NC(=O)Nc2ccc3c(c2)[C@@H]2C[C@@H](CC(=O)N4CCN(C)CC4)O[C@@H](CO)[C@@H]2O3)cc1`, for which the cytotoxicity call in the assay on HSkMC and in the assay with HepG2 was “inactive” each time. The growth inhibition call in the assay with S. aureus RN4220 was “inactive”.

As to `C[C@@H]1CN([C@@H](C)CO)C(=O)c2cc(NC(=O)NC3CCCCC3)ccc2O[C@H]1CN(C)Cc1ccc(C(=O)Nc2ccccc2N)cc1`, the cytotoxicity call in the assay with HSkMC and in the assay on HepG2 was “inactive” throughout. Further, in the assay with S. aureus RN4220, the growth inhibition call is “inactive”.

On to `C[C@@H]1CN([C@@H](C)CO)C(=O)Cc2cc(NC(=O)C3CC3)ccc2O[C@@H]1CN(C)Cc1ccc(Oc2ccccc2)cc1`, for which the cytotoxicity call with HSkMC and with HepG2 was “inactive” in each case. The growth inhibition call in the assay on S. aureus RN4220 was “inactive”.

For the molecule `C[C@@H](N)CO`, the cytotoxicity call with HSkMC and with HepG2 was “inactive” in each case. The growth inhibition call in the assay on S. aureus RN4220 is “inactive”.

As for `NCCCc1nc2c(s1)CCCC2`, the cytotoxicity call in the assay with HSkMC and in the assay on HepG2 was “inactive” each time. In addition, in the assay with S. aureus RN4220, the growth inhibition call is “inactive”.

With `C[C@H]1CN([C@@H](C)CO)C(=O)c2cc(C#Cc3cccc(F)c3)cnc2O[C@H]1CN(C)C(=O)C1CCOCC1`, the cytotoxicity call in the assay on HSkMC and with HepG2 was “inactive” in each case. Further, in the assay on S. aureus RN4220, the growth inhibition call was “inactive”.

For `C[C@@H]1CN([C@@H](C)CO)C(=O)c2cc(NC(=O)Nc3cccc4ccccc34)ccc2O[C@@H]1CN(C)S(=O)(=O)c1ccc(F)cc1`, the cytotoxicity call in the assay with HSkMC and with HepG2 was “inactive” throughout. In addition, the growth inhibition call with S. aureus RN4220 is “inactive”.

`O=C(C1=C[C@H](c2coc3ccccc3c2=O)C[C@H](OCc2ccc(CO)cc2)O1)N1CCCCCCC1`: the cytotoxicity call in the assay on HSkMC and with HepG2 was “inactive” each time. The growth inhibition call in the assay with S. aureus RN4220 was “inactive”.

Consider `C[C@@H]1CCCCO[C@H](CN(C)C(=O)Nc2ccc(C(F)(F)F)cc2)[C@H](C)CN([C@@H](C)CO)C(=O)c2cc(NS(=O)(=O)c3ccccc3)ccc2O1`, for which the cytotoxicity call with HSkMC was “inactive”. Further, the cytotoxicity call in the assay with HepG2 was “active”. For the same molecule, in the assay on S. aureus RN4220, the growth inhibition call was “inactive”.

Consider `CCCN(C)C[C@@H]1OCCCC[C@@H](C)Oc2ccc(NS(=O)(=O)c3cn(C)cn3)cc2C(=O)N([C@H](C)CO)C[C@@H]1C`, for which the cytotoxicity call with HSkMC and in the assay on HepG2 was “inactive” in each case. For the same molecule, the growth inhibition call in the assay with S. aureus RN4220 was “inactive”.

`O=C(C[C@H]1CC[C@@H]2[C@H](COC[C@H](O)CN2C(=O)c2ccncc2)O1)NCc1ccc(-c2ccccc2)cc1`: the cytotoxicity call in the assay on HSkMC (human skeletal muscle cells) and in the assay with HepG2 was “inactive” throughout. Moreover, in the assay on S. aureus RN4220, the growth inhibition call is “inactive”.

Consider `COc1ccc(CN(C)C[C@H]2Oc3ccc(NS(=O)(=O)c4c(C)noc4C)cc3C(=O)N([C@@H](C)CO)C[C@@H]2C)cc1`, for which the cytotoxicity call in the assay with HSkMC and with HepG2 was “inactive” in each case. Moreover, in the assay with S. aureus RN4220, the growth inhibition call is “inactive”.

As for `CC(C)n1nnc(CC(=O)NN)n1`, the cytotoxicity call in the assay with HSkMC and in the assay with HepG2 was “inactive” in each case. In the assay on S. aureus RN4220, the growth inhibition call is “inactive”.

Values taken from the antibiotic and cytotoxicity screens of Wong et al. (2023).
